Source: the supplement of paper PMC4604168 (melanoma cell lines)
This is one part of the list. Single values are uncertain, as repeats are few or missing.

Tests used:
Assay in all cases: cell count relative to DMSO control; melanoma cells; higher = more viable cells
Conditions in all cases: library dose: low library concentration; 72 h
MZ2-MEL = system: MZ2-MEL
MeWo = system: MeWo
RPMI7951 = system: RPMI7951
RVH-421 = system: RVH-421
SkMel28 = system: SkMel28
SkMel30 = system: SkMel30
SkMel5 = system: SkMel5
UACC257 = system: UACC257
UACC62 = system: UACC62
WM115 = system: WM115
WM1716 = system: WM1716
WM1745 = system: WM1745
WM3526 = system: WM3526
WM3619 = system: WM3619
WM451Lu = system: WM451Lu
SkMel2 = system: SkMel2
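Further: cell number obtained by counting DAPI-stained nuclei in high-throughput microscope images with image analysis software, screen run in 1,536-well plates.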

Row | SMILES | cell count (MZ2-MEL) [%] | cell count (MeWo) [%] | cell count (RPMI7951) [%] | cell count (RVH-421) [%] | cell count (SkMel28) [%] | cell count (SkMel30) [%] | cell count (SkMel5) [%] | cell count (UACC257) [%] | cell count (UACC62) [%] | cell count (WM115) [%] | cell count (WM1716) [%] | cell count (WM1745) [%] | cell count (WM3526) [%] | cell count (WM3619) [%] | cell count (WM451Lu) [%] | cell count (SkMel2) [%]
1 | CN(NC(=O)CC(=O)NN(C)C(=S)c1ccccc1)C(=S)c1ccccc1 + O=C(Nc1ccccc1)c1cc([N+](=O)[O-])ccc1Cl [GW9662] (first compound 0.006 µM, partner dose 2 µM) | 93 | 78.4 | 94.3 | 108 | 88.3 | 93.6 | 103 | 97.8 | 80.6 | 84.5 | 68.3 | 56.4 | 108 | 33.6 | 139 | 
2 | Cc1ccc(NC(=O)c2cccc(N(C)C)c2)cc1NC(=O)c1ccc(O)cc1 + COc1ccc(-c2ccc3c(N4CCOCC4)nc(N4C[C@@H](C)O[C@@H](C)C4)nc3n2)cc1CO [KU0063794] (first compound 2 µM, partner dose 0.02 µM) | 80.9 | 90.6 | 104 | 103 | 73.1 | 68.3 | 101 | 71.5 | 82.9 | 90.1 | 99.4 | 89.6 | 82.7 | 98.6 | 66.9 | 
3 | Cc1ccc(NC(=O)c2cccc(N(C)C)c2)cc1NC(=O)c1ccc(O)cc1 + COc1ccc2c(c1)CCC1C2CCC2(C)C(NCCCCCCN3C(=O)C=CC3=O)CCC12 [U73122] (first compound 2 µM, partner dose 0.4 µM) | 74.7 | 102 | 82.2 | 122 | 87.6 | 43 | 93.1 | 87.9 | 101 | 106 | 92.3 | 89.8 | 68.7 | 95.2 | 111 | 
4 | COc1cc2c(Oc3ccc4[nH]c(C)cc4c3F)ncnc2cc1OCCCN1CCCC1 [cediranib] + c1cc(-c2cnn3cc(-c4ccc(OCCN5CCCCC5)cc4)cnc23)ccn1 [Dorsomorphin] (first compound 0.4 µM, partner dose 0.4 µM) |  | 101 | 104 | 84.1 | 103 | 99.7 | 93.2 | 77.8 | 89.1 | 85.8 | 104 | 74.4 | 89.4 | 148 | 83.1 | 
5 | COc1cc2c(Oc3ccc4[nH]c(C)cc4c3F)ncnc2cc1OCCCN1CCCC1 [cediranib] + COC(=O)c1sccc1S(=O)(=O)Nc1ccc(Nc2ccccc2)cc1OC [GSK0660] (first compound 0.4 µM, partner dose 1 µM) | 98.6 | 107 | 94.2 | 107 | 102 | 102 | 95.6 | 85.7 | 89.6 | 106 | 98 | 85.5 | 88.4 | 108 | 107 | 
6 | NC(=O)c1ccc(N(C(N)=O)c2c(F)cccc2F)nc1-c1ccc(F)cc1F + COCC[n+]1c2c(n(Cc3cnccn3)c1C)C(=O)c1ccccc1C2=O [YM155] (first compound 0.4 µM, partner dose 0.0004 µM) |  | 108 | 84.5 | 97.3 | 101 | 92 |  |  | 97.5 | 99.2 | 118 | 118 | 104 | 98.1 | 74.1 | 83
7 | CN(NC(=O)CC(=O)NN(C)C(=S)c1ccccc1)C(=S)c1ccccc1 + O=C(O)C(=O)Nc1sc2c(c1C(=O)O)CCNC2 [TCS401] (first compound 0.006 µM, partner dose 1.66667 µM) | 104 | 85.4 | 113 | 85.6 | 87.5 | 79.1 | 102 | 89.7 | 103 | 97.6 | 80.8 | 63 | 117 | 59.4 | 111 | 
8 | CCc1ccc(CCOc2ccc(CC3SC(=O)NC3=O)cc2)nc1 (configuration not stated) [pioglitazone] + Oc1nc(-c2ccc(C(F)(F)F)cc2)nc2c1CSCC2 [XAV939] (first compound 2 µM, partner dose 2 µM) | 97.9 | 96 | 99.4 | 107 | 100 | 118 | 80.6 | 83.7 | 99.2 | 94.9 | 60.8 | 71.8 | 94.6 | 95.8 | 90.5 | 
9 | CCc1ccc(CCOc2ccc(CC3SC(=O)NC3=O)cc2)nc1 (configuration not stated) [pioglitazone] + Cc1cc([N+](=O)[O-])ccc1NS(=O)(=O)c1cc(Cl)ccc1Cl [FH535] (first compound 2 µM, partner dose 1 µM) | 96.9 | 106 | 100 | 79.5 | 101 | 80 | 79.9 | 87.1 | 97 | 84.7 | 87.3 | 98.9 | 97.1 | 101 | 91.8 | 
10 | CCc1ccc(CCOc2ccc(CC3SC(=O)NC3=O)cc2)nc1 (configuration not stated) [pioglitazone] + c1cc(-c2cnn3cc(-c4ccc(OCCN5CCCCC5)cc4)cnc23)ccn1 [Dorsomorphin] (first compound 2 µM, partner dose 0.4 µM) | 106 | 103 | 94 | 92.9 | 88.5 | 121 | 85.5 | 90.2 | 101 | 99.9 | 88.6 | 95.3 | 86.3 | 128 | 105 | 
11 | CCc1ccc(CCOc2ccc(CC3SC(=O)NC3=O)cc2)nc1 (configuration not stated) [pioglitazone] + CCCCCCCCCCCC1=C(O)C(=O)C=C(O)C1=O [Embelin] (first compound 2 µM, partner dose 1.2 µM) | 99.2 | 94.5 | 117 | 99.7 | 100 | 105 | 97.3 | 118 | 109 | 98.7 | 114 | 83.7 | 107 | 115 | 118 | 
